Results as given in the supplement of paper PMC3334620.
The full ranking holds about 33,000 sequences; the median of “E-score (-0.5 to 0.5)” is about -0.035, and the highest 2% start at about 0.34. This is one part of the list.

biological target: T1, Mot3 (UniProt P54785); assay: PBM E-score (8-mer binding enrichment) (E-score (-0.5 to 0.5)); higher = stronger / more preferred TF binding; most listed sequences are background and not binding sites; conditions: protein concentration: 200 nM; construct: GST-full length
T1 sequence: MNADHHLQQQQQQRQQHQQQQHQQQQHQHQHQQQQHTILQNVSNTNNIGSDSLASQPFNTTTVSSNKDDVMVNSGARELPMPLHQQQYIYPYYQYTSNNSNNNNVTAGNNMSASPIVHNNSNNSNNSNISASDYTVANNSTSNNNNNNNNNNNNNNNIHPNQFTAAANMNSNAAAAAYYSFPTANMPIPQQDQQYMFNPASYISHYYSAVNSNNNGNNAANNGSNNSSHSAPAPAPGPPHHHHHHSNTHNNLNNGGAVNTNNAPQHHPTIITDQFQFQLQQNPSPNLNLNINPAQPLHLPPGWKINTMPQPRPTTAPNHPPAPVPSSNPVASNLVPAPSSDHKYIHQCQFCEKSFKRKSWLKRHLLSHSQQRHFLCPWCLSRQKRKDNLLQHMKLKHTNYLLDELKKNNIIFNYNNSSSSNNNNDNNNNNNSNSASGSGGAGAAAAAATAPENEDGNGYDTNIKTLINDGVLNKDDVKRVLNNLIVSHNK
Method in brief: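 E-scores (a modified Wilcoxon-Mann-Whitney statistic) were assigned by the Universal PBM Analysis Suite to every ungapped eight-base word pooled with its reverse complement. The input came from universal all-10-mer Agilent arrays made double-stranded by primer extension and probed with GST-tagged yeast transcription factors at about 100-200 nM. Fluorescent anti-GST detected bound protein, and masliner normalised the scans.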

In order of falling “PBM E-score” value:
1. TAAACACA  0.323
2. GGCAAGAA  0.307
3. AATGGGCA  0.279
4. CAACAAGG  0.277
5. ATGTCAAC  0.264
6. TAAGAACA  0.262
7. TCGTTTAA  0.23
8. GTTCTTTA  0.227
9. TCTAATAA  0.181
10. ACACAGTG  0.168
11. ACGGATTA  0.163
12. ATTTTTAA  0.156
13. ATATATAG  0.146
14. ACGCGCCA  0.144
15. AGAATTTA  0.142
16. GAGCAGGA  0.129
17. AATGTGAA  0.116
18. GCCTCGAA  0.103
19. ACCCTGAA  0.074
20. AAAGCCTG  0.0672
21. GATACGCA  0.0657
22. GCAGACAA  0.0589
23. ACGTATGC  0.0428
24. AAAAATGA  0.0423
25. TAGGCCTA  0.0416
26. TCGCAAAA  0.0297
27. GCAACACC  0.0277
28. TCGCTCAA  0.023
29. AGGTTCGA  0.0225
30. CTGTGCAC  0.0162
31. ATGTTCCA  0.0157
32. CTGAATTC  0.0126
33. AATGATGA  0.00977
34. GTTCGCTA  0.00268
35. ATATCATC  0.00215
36. ATTCATGC  -0.0128
37. ACTCTGGA  -0.0159
38. GGTCCAAA  -0.0248
39. AGCAACGA  -0.028
40. ATAAGGAG  -0.0283
41. CTAAACCA  -0.0323
42. AATAACGG  -0.041
43. GCGTTGCA  -0.051
44. AAGCATGA  -0.057
45. GCTACCAA  -0.0577
46. GACGATGC  -0.0621
47. GCCACAGA  -0.0635
48. CTCCTGTC  -0.0661
49. AGATAGTG  -0.0737
50. TCGCGACA  -0.0759
51. AGACCCAC  -0.0779
52. ATTTTAGA  -0.0785
53. AGTCAAGC  -0.084
54. CAGACTTC  -0.0881
55. TCGTACCA  -0.0952
56. ATTGAGGA  -0.099
57. AGCTACGG  -0.0998
58. ACTGCGCT  -0.105
59. AGGAGGTA  -0.109
60. CCTAGAAG  -0.113
61. AACCTCAC  -0.115
62. CTGGGATA  -0.119
63. TCGCGAGA  -0.12
64. GCCGTTAC  -0.13
65. CGATGGTA  -0.133
66. ATAGGGAC  -0.134
67. AGGATCCG  -0.143
68. CTCCATCA  -0.148
69. CGAAACCG  -0.162
70. CCACCACG  -0.169
71. AGCCACCA  -0.18
72. GCCGCGCC  -0.189
73. CAAAGGAC  -0.189
74. GGGGCACA  -0.202
75. GGCGATAC  -0.207
76. AAGGGTGG  -0.215
77. GATCAACC  -0.218
78. AGGCTTCA  -0.221
79. CTTACCGA  -0.224
80. CCACCCAA  -0.226
81. CAACTATC  -0.235
82. ACTGGAGG  -0.247
83. CCAGTCTC  -0.258
84. GGTGGCAC  -0.286
85. GCCAAGCC  -0.349
86. CCAGGGGA  -0.363
